Laboratory results from PubChem BioAssay AID1159614 (National Center for Advancing Translational Sciences (NCATS), 2016).
Out of some 45,000 compounds screened, about 65 (0.1%) were called active. Calls come from the whole dose curve; as a rule, active = well fitted activation curve with a large enough effect; inconclusive = small, poorly fitted or top-dose-only effect; inactive = no such curve, though single readings can be large or run the other way. Some of the results follow.

target: Galactocerebrosidase (Homo sapiens) (UniProt P54803); assay: A Novel Cell-Based Assay to Identify Small Molecules for B -Galactocerebrosidase; conditions: 145M-Twi-hGALC-G270D cells (Twitcher mouse brain line with human GALC G270D), HMU-beta-Gal fluorescence, 48 h; series mostly up to 57.5 µM; activation: at the top concentration; note: 0% is about no effect; nearly all actives have a fitted effect of over 65% in size
Source text: Lysosomal storage diseases (LSDs) are caused by genetic mutations in genes encoding proteins important for normal lysosomal function. Globoid cell leukodystrophy (GLD), mostly known as Krabbe disease, is a prototype of the neurological LSDs caused by deficiency of beta-galactocerebrosidase (GALC). In brain specimens of GLD patients, psychosine levels are substantially elevated. At elevated concentrations, psychosine becomes cytotoxic to neuronal cells, particularly to oligodendrocytes (OLG), neural cells responsible for myelin formation. Therefore, the biochemical disturbances in GLD are manifested by different degrees of brain demyelination resulting in a broad spectrum of neurological manifestations. Most of the FDA-approved therapies are based on enzyme replacement therapeutic (ERT) agents, which treat non-neurological symptoms of Gaucher disease, Fabry disease, few mucopolysaccharidoses and Pompe disease. Unfortunately, in GLD, a primarily neurological LSD, ERT agents, as large molecular weight molecules unable to cross the blood-brain barrier, which makes this an inefficacious therapeutic approach. In GLD, increasing the residual GALC activity just above the critical threshold (~10% of wild type enzymatic activity), the cytotoxic levels of psychosine will be reduced, avoiding the OLGs apoptosis and the subsequent demyelination process. This will translate in disease stabilization and amelioration of GLD patient symptoms.
A cell-based assay in 1,536-well plate format was developed to implement a quantitative high-throughput screening (qHTS) assay using GLD-disease relevant cells to identify small molecules that produce enhancements of the residual enzymatic activity levels of mutants GALC found and prevalent in GLD patients. Compounds that are active may therefore have some therapeutic application for GLD. After the treatment of live cells for a determined period, using a fluorescent GALC specific substrate, the mutant residual GALC activity is measured. This cell-based qTHS assay was used to screen part of the MLPCN library for small molecule able to increase the mutant GALC enzymatic activity. In this assay, increased fluorescent signal corresponds to enhanced levels of mutant GALC residual enzymatic activity. Activation is the desired outcome for this assay.
NIH Chemical Genomics Center [NCGC]
NIH Molecular Libraries Probe Centers Network [MLPCN]
Assay Submitter (PI): Gustavo Maegawa MD,PhD, University of Florida, Gainesville, FL
2)#Two cell lines were established for the assay: 145M-Twi-hGALC-G270D (brain-derived Twitcher cell line stably expressing human GALC-G270D) and 145M-Twi-hGALC-WT (same 145M-Twi stably expressing human GALC wild type). The Twitcher is the murine C57B/6 model for GLD with naturally occurring homozygous nonsense GALC mutation. The 145M-Twi cell line was established at Maegawa lab (Ribbens J et al 2014).
a.#Media: DMEM/F12 (1:1) with 10% fetal bovine-serum (FBS) with penicillin/streptomycin (PS-1X - 100 I.U./mL of penicillin+100 ug/mL of streptomycin).
b.#The 6-Hexadecanoylamino-4-methylumbelliferyl-b-D-galactoside (HMU-B-gal) substrate was prepared as per Wiederschain et al 1992. Using 20-mL borosilicate tubes, 2.20 mg of HMU-b-Gal was added in each tube to prepare substrate-film with a final air-nitrogen stream evaporation to remove all diluent solvents.
c.#The HMUb-Gal substrate buffer consists of 0.2 M Na2HPO4 (sodium phosphate dibasic)/ 0.1 M Citric Acid with the pH adjusted to 5.2 using HCl. Sodium Azide at 0.02% and Sodium Taurocholate (NaTC) at 1 mg/mL were added to this substrate buffer.
d.#The HMU-b-Gal stopping buffer consist of 0.5 M NaHCO3 (sodium bicarbonate) /0.5 M Na2CO3 (sodium carbonate). […] Triton X-100 at 0.25% was added.
4)#Preparation of HMU-b-Gal substrate tubes
Adding 18.6 mL of the HMUb-Gal substrate buffer to each 20-mL tube (2.20 mg of HMU-b-Gal) will reach a concentration of 0.2 mM. Vortex well the tube until the solution is fully homogenized (clear cloudy solution). […]

Sequence of UniProt P54803 (P54803 whole entry, looked up): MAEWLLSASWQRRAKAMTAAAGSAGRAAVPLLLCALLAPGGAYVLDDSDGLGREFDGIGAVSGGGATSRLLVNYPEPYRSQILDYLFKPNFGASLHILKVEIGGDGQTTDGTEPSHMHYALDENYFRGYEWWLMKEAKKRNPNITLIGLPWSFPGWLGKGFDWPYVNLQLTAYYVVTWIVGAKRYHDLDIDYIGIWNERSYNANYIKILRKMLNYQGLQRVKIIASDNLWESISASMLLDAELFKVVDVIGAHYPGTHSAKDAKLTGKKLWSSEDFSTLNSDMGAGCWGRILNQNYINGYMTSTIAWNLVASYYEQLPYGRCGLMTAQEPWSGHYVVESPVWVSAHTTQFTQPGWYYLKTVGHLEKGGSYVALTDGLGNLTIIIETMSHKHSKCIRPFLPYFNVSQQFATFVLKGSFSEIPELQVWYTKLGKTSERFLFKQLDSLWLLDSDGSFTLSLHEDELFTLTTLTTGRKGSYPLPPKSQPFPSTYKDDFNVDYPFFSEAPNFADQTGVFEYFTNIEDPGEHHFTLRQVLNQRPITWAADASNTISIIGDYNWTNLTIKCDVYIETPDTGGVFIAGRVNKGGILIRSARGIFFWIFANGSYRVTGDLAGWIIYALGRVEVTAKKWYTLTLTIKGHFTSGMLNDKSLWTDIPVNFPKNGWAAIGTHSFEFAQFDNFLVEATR

activation, inactive:
Cn1c(=O)c2nc(SCC(=O)Nc3ccc(Cl)c(Cl)c3)n(C)c2n(C)c1=O -8.13%
Cc1cc(C)cc(NC(=O)Cn2cc(C(=O)c3ccccc3)c(=O)c3ccc(C)nc32)c1 -11%
CCCCC(CC)CN=C(N)NC(N)=NCCCCCCN=C(N)NC(N)=NCC(CC)CCCC (stereo not given) -35.7%
Cc1ccc(CN(Cc2ccco2)c2cnc(S(C)(=O)=O)nc2C(=O)Nc2ccccc2Br)o1 -5.69%
COc1ccc(CNC(=O)Cn2nc(C)c3c(C)n(-c4ccccc4)nc3c2=O)cc1OC 0.774%
Cc1cccc(-c2nc(C(N)=O)c3c(n2)n(-c2ccc4c(c2)OCO4)c(=O)n3C)c1 -3.12%
COc1ccc(N(C)C(=O)c2cc(S(=O)(=O)N3CCc4ccccc43)cn2C)c(OC)c1 -10.7%
CCc1ccc(C2CC(=O)Oc3c2c(=O)n(C)c2ccccc32)cc1 (stereo not given) -7.02%
CCCCc1ccc(NC(=O)C2(C)Cc3ccccc3C(=O)O2)cc1 (stereo not given) -19.5%
O=C(Nc1ccc(Cl)cc1)c1cc2c(-c3ccccc3)nn(-c3ccccc3)c2s1 2.74%
Cc1nn(CC(=O)N2CCCCC2)c(=O)c2cc3occc3n12 -11.2%
CCN(CC)CCNC(=O)COc1ccc(Cl)cc1 -16.3%
Cc1ccc(-n2c3nc(=O)[nH]c(=O)c-3cc3c(C)nn(-c4ccccc4)c32)c(C)c1 -9.42%
Cc1ccc(Cl)cc1NC(=O)CCS(=O)(=O)c1ccc2c(c1)n(C)c(=O)c(=O)n2C -9.09%
COC(=O)CN1C(=O)C(O)(CC(=O)c2ccc(F)cc2)c2ccccc21 (stereo not given) -12.4%
CCOC(=O)CSc1nc2ccc(NC(=O)COc3ccccc3C)cc2s1 -7.47%
CC(NC(=O)C1CCN(S(=O)(=O)c2ccc3nc4c(c(C(=O)O)c3c2)CCCC4)CC1)c1ccccc1 (stereo not given) -8.92%
CC(C)Cn1cc(NC(=O)NCc2ccccc2Cl)c2ccccc2c1=O -24.1%
CCc1ccc(-n2c(SCc3cccc(F)c3)nc3[nH]ncc3c2=O)cc1 -3.81%
O=C(CSc1oc(-c2ccccc2)nc1S(=O)(=O)c1ccccc1)c1ccccc1 -12.7%
Cc1ccc(NC(=O)CCS(=O)(=O)c2cc(Br)cc3c2N(C(=O)C2CC2)CC3)cc1 -13.5%
COc1cccc(NC(=O)c2ccc3nc(Cc4ccccc4)oc3c2)c1 -37.1%
Cc1ccc(-n2c(-c3ccco3)nc3c(cnn3-c3ccccc3C)c2=O)cc1 11.4%
COCCn1c(=N)c(C(=O)NCc2ccco2)cc2c(=O)n3cc(C)ccc3nc21 -8.99%
COC(=O)c1cc(NS(=O)(=O)c2cc(Br)cc3c2N(C(C)=O)CC3)cc(C(=O)OC)c1 16.3%
CC(C)OC(=O)c1cc(C(=O)OC(C)C)cc([N+](=O)[O-])c1 -14.3% [at 114 µM]
Cc1nn(-c2ccccc2)c(OC(=O)C(C)(C)C)c1Sc1ccccc1 -18.8%
Cc1ccc2nc(NCCc3ccccc3)c3nncn3c2c1 -9.89%
Cc1ccc(Cn2c(SCc3ccc(C(=O)NC4CCCC4)cc3)nc3ccncc32)cc1 -17.3%
CCn1c(=O)cc(OCC(=O)Nc2ccc(C)c(F)c2)c2ccccc21 -9.75%
O=c1oc2ccccc2cc1-c1cn2cc(Cc3ccccc3F)sc2n1 -9.53%
CCc1ccc(-n2c(=O)c3cccnc3n2CC(=O)Nc2ccccc2C(F)(F)F)cc1 -23.3%
N#Cc1c(NC(=O)CS(=O)(=O)c2ccc(Cl)cc2)sc2c1CCCCC2 -14.3%
COc1ccc(-c2cn3c(n2)sc2cc(C(=O)Nc4cc(OC)cc(OC)c4)ccc23)cc1 -14.3%
COc1ccc(-c2ccc(CCC(=O)O)n2CC(=O)Nc2cccc(C(F)(F)F)c2)cc1 -14.4%
CCCC(=O)c1ccc(OC(=O)c2c(-c3ccccc3Cl)noc2C)cc1 -13.2%
Cc1nnc(NC(=O)C(=O)c2cc(C)n(-c3ccc(C)c(C)c3)c2C)s1 -30.7%
Cc1ccc(C(=O)Nc2ccc3oc(-c4ccncc4)nc3c2)c(Cl)c1 -19.6%
Cc1cccc(-n2c(=O)c3c(c4cc(C)ccc4n3C)n(CC(=O)Nc3ccc(C)cc3C)c2=O)c1 -4.98%
COc1cc(-c2cc(OC)c3c(C)oc(C)c3c(=O)c2)ccc1OC(=O)c1ccccc1F -16.5%
CCOc1ccc(-c2cc(C(=O)NCCc3ccc(Cl)cc3)c3ccccc3n2)cc1 -20.7%
COc1ccccc1-c1nc(CNC(=O)Nc2ccccc2)c(C)o1 1.06%
COc1ccccc1C(=O)NC1=NC(c2ccc(Br)cc2)CC(=O)N1 (stereo not given) -3.54%
COc1ccc(N2CCN(C(=O)c3ccc4c(Cl)c5c(nc4c3)CCCC5)CC2)cc1 -12.3%
CCOC(=O)c1c(NC(C)=O)c2c3c(sc2n1Cc1nc(-c2cccc(C)c2)oc1C)CCCC3 -8.13%
CCCCCCNC(=O)n1cc(F)c(=O)[nH]c1=O -17.8%
COc1ccc(CN2C(=O)N(c3ccc(C)cc3)C(=O)C2CC(=O)Nc2ccccc2)cc1OC (stereo not given) -12.3%
O=[N+]([O-])c1cc(-c2nc(-c3ccccc3)no2)ccc1NC1CCCC1 3.66%
CCCn1c2ccccc2c2cnn(CC(=O)NCCc3ccc(C)cc3)c(=O)c21 1.59%
Cc1ccc(Cl)cc1NC(=O)C1CCN(c2nc3ccccc3n3cccc23)CC1 1.18%
CCOc1ccc2nc(N3CCCC(C(=O)NCc4ccccc4OC)C3)sc2c1 (stereo not given) -5.56%
Cc1nnc2c3ccccc3nc(Nc3cccc(O)c3)n12 -5.11%
CCCCOC(=O)c1ccc(Nc2nnc(-n3nc(C)cc3C)c3ccccc23)cc1 6.51%
COc1ccc(-c2noc(CN(C(=O)c3cc(OC)c(OC)cc3OC)C(C)C)n2)cc1 18%
COc1cc(C2C(C(=O)Nc3ccccc3)=C(C)Nc3nnnn32)cc(OC)c1OC (stereo not given) -2.9%
O=C(NC1CC(=O)N(c2ccc(Cl)cc2)C1)c1ccc(S(=O)(=O)N2CCOCC2)cc1 (stereo not given) -3.7%
CCOC(=O)c1ccc(NC(=O)c2nc(SCc3ccccc3F)ncc2Cl)cc1 -9.06%
COc1ccc(-c2noc(CSc3nc(N)cc(=O)[nH]3)n2)cc1OC -12%
CCc1nn(CC(=O)NCCCOC)c(=O)c2cc3ccccc3n12 -8.11%
Cc1ccc(CN2CCCn3nc(C(=O)NCC(C)c4ccccc4)cc3C2=O)cc1 (stereo not given) -1.83%
COCCn1c(=O)[nH]c2cc(C(=O)Nc3cccc(C(C)=O)c3)ccc2c1=O -4.16%
COc1ccc(Nc2oc(/C=C/c3ccc(OC)c(OC)c3)nc2C#N)cc1 -17.4%
CC(=O)Nc1ccn(C2COC(COC(=O)c3ccccc3)O2)c(=O)n1 (stereo not given) -7.01%
Cc1cc(C)c2oc(C(=O)Nc3ccc(S(=O)(=O)Nc4nccc(C)n4)cc3)cc(=O)c2c1 -7.07%
CCOc1ccc(S(=O)(=O)Nc2cc(Cl)ccc2OC)c2cccnc12 -33.7%
Cc1ccc(/C=C/c2onc(C)c2S(=O)(=O)N2CCC(C(=O)Nc3cc(F)ccc3F)CC2)cc1 -0.706%
COc1ccc2oc(-c3cccc(NC(=O)c4sc5c([N+](=O)[O-])cccc5c4Cl)c3)nc2c1 2.04%
Cc1cccc(C)c1Nc1c(-c2ccc(O)cc2)nc2sccn12 5.9%
O=c1oc2ccccc2cc1-c1cn2cc(Cc3ccc(Br)cc3)sc2n1 2.17%
O=c1c2sc3ccccc3c2n(Cc2cccc(C(F)(F)F)c2)c(=O)n1Cc1ccc(F)cc1 -5.98%
Cc1cc(C)cc(-n2ccn(Cc3ccc(F)cc3)c(=O)c2=O)c1 -2.13%
CCOc1ccc(S(=O)(=O)NCCc2sc3nc(-c4ccc(C)cc4)nn3c2C)cc1 -13.4%
CCCn1c(CCC(=O)Nc2ccccc2OC)nc2cccnc21 -15%
Cc1ccc(-c2cn(-c3ccc(Cl)cc3)c(S(=O)(=O)CC(=O)Nc3ccccc3)n2)cc1 -11.3%
COc1cccc2c1C(=O)c1c(O)c3c(c(O)c1C2=O)C[C@@](O)(C(=O)CO)C[C@@H]3O[C@H]1C[C@H](N)[C@H](O[C@@H]2CCCCO2)[C@H](C)O1 -22%
COc1ccc(NC(=O)CC2C(=O)N(c3cccc(OC)c3)C(=O)N2Cc2ccc3c(c2)OCO3)cc1 (stereo not given) -21.4%
COc1ccc(S(=O)(=O)c2nnn(-c3ccc(C)c(Cl)c3)c2C)cc1 -34.5%
Cc1cc(C)cc(NC(=O)C2CCN(S(=O)(=O)c3cccc(-c4noc(C)n4)c3)CC2)c1 -13.5%
O=C(CC1N=C2c3ccccc3N=C(SCC(=O)Nc3ccccc3F)N2C1=O)NCc1cccs1 (stereo not given) -17.1%
Cc1cccc(NC(=O)C(=O)NCCc2csc(-c3ccc(C(F)(F)F)cc3)n2)c1C -4.52%
Fc1ccc(Br)cc1C1C=C(c2ccc(Br)cc2)Nc2nnnn21 (stereo not given) -8.38%
CC1=Nc2cc(C(=O)NC(C)C)ccc2Sc2ccc(C)cc21 -27.6%
Cc1ccc(CNC(=O)CCCN2C(=O)COc3ccc(C)cc32)cc1 -8.43%
Cc1ccc(NC(=O)c2c(NC(=O)c3ccccc3)sc3c2CCC3)cc1 -10.4%
Cc1ccc2sc(N(Cc3cccnc3)C(=O)C3COc4ccccc4O3)nc2c1C (stereo not given) -16%
CC1CCc2c(sc(NC(=O)c3cc(-c4ccc(F)cc4)on3)c2C(N)=O)C1 (stereo not given) 0.111%
CC(C)Cn1c(=O)c2sccc2n2c(CCCC(=O)NC3CCCCC3)nnc12 6.92%
COc1cccc(CNC(=O)CCCn2nc(C)c3c(C)n(-c4ccc(C)cc4)nc3c2=O)c1OC 1.53%
CCN(CC)CCNC(=O)c1ccc(-n2c(-c3ccccc3)cc3c2CCCC3)cc1 -5.03%
CCc1ccc(CN(C(=O)c2cc(=O)c3ccc(C)cc3o2)C2CCS(=O)(=O)C2)cc1 (stereo not given) -6.77%
Cc1cc(=O)n2[nH]c(NC(=O)c3cccc(Cl)c3)nc2n1 -15.6%
COc1ccc(CNC(=O)Cn2ncc3c(=O)oc4ccc(C)cc4c32)c(OC)c1 -13.3%
COc1ccc(-c2nc(CN3CCC(C(=O)NCc4ccc(F)cc4)CC3)c(C)o2)cc1OC -7.87%
CCCC(=O)Nc1nnc(SCc2cc(=O)n3cccc(C)c3n2)s1 -7.26%
CC#C[C@]1(O)CC[C@H]2[C@@H]3CCC4=CC(=O)CCC4=C3[C@@H](c3ccc(N(C)C)cc3)C[C@@]21C -42%
